In the supplement of paper PMC6206098:
± gives the uncertainty stated by the source. The sequences are guide strands of siRNAs; only the seed at positions 2 to 7 varies.

Experiments:
[1] = tested on: 3LL; test: cell viability relative to siNT1 control; higher = less toxic; conditions: concentration: 10 nM; 96 h; Mus musculus;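 note: Luminescence-based viability of cells reverse transfected in 384-well plates with lipid-complexed siRNAs built on a non-toxic 19mer backbone whose passenger strand carries 2′-O-methyl groups at positions 1 and 2, triplicates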
[2] = tested on: H460; test: cell viability relative to lipid-only control; HeyA8 human ovarian and H460 human lung cancer; M565 mouse liver and 3LL mouse lung cancer; siNT1 is a non-toxic control siRNA; higher = less toxic; conditions: concentration: 10 nM; 96 h; Homo sapiens
[3] = tested on: HeyA8; test: as above; conditions: concentration: 10 nM; 96 h; Homo sapiens
[4] = tested on: M565; test: as above; conditions: concentration: 10 nM; 96 h; Mus musculus
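Throughout, for cell viability relative to lipid-only control: reverse lipid transfection in 384-well plates, in triplicate, of duplexes on a non-toxic 19mer backbone with passenger strand 2′-O-methylated at positions 1 and 2, luminescence viability read-out.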

Question: What does the source list for UACAUCUACAUGUAAACCAAA?
Answer: cell viability [1]: 31.6 ± 3.3%; cell viability [2]: 72.4 ± 4.7%; cell viability [3]: 7.45 ± 1.9%; cell viability [4]: 31.8 ± 9.5%

Question: For UUGCUGAACAUGUAAACCAAA, which cell viability [1] is on record?
Answer: Its cell viability is 38.4 ± 5.2%.

Question: And the cell viability [2]?
Answer: Its cell viability is 90.4 ± 9.9%.

Question: And the cell viability [3]?
Answer: Its cell viability is 77.3 ± 1.1%.

Question: And the cell viability [4]?
Answer: Its cell viability is 29.7 ± 7.5%.

Question: Which results are given for UUCACAUACAUGUAAACCAAA?
Answer: cell viability [1]: 71.1 ± 17%; cell viability [2]: 29.5 ± 3.9%; cell viability [3]: 78.2 ± 11%; cell viability [4]: 68.3 ± 8.3%

Question: Which cell viability [1] does the source give for UUAAAGGACAUGUAAACCAAA here?
Answer: Its cell viability is 86.6 ± 6.5%.

Question: And the cell viability [2]?
Answer: Its cell viability is 74.3 ± 14%.

Question: What about the cell viability [3] of the same sequence?
Answer: Its cell viability is 87.1 ± 3.8%.

Question: What about the cell viability [4] of the same sequence?
Answer: Its cell viability is 46.2 ± 8.8%.

Question: How did the cell viability [1] turn out when UUUAAUCACAUGUAAACCAAA was run?
Answer: Its cell viability is 97.6 ± 4%.

Question: What about the cell viability [2] of the same sequence?
Answer: The cell viability was 77.9 ± 9.5%.

Question: And the cell viability [3]?
Answer: Its cell viability is 88.9 ± 13%.

Question: What about the cell viability [4] of the same sequence?
Answer: Its cell viability is 88.9 ± 6.1%.

Question: How did the cell viability [1] turn out when UUAAGUUACAUGUAAACCAAA was run?
Answer: Its cell viability is 49.3 ± 3.8%.

Question: What about the cell viability [2] of the same sequence?
Answer: Its cell viability is 62.6 ± 9.4%.

Question: What about the cell viability [3] of the same sequence?
Answer: The cell viability was 68.1 ± 5.2%.

Question: And the cell viability [4]?
Answer: Its cell viability is 41.6 ± 12%.

Question: For UGCUGCGACAUGUAAACCAAA, which cell viability [1] is on record?
Answer: Its cell viability is 50.4 ± 18%.

Question: What about the cell viability [2] of the same sequence?
Answer: The cell viability was 67.4 ± 12%.

Question: And the cell viability [3]?
Answer: The cell viability was 32.2 ± 3.5%.

Question: And the cell viability [4]?
Answer: The cell viability was 10.5 ± 1.9%.

Question: Which cell viability [1] does the source give for UACAAGAACAUGUAAACCAAA here?
Answer: Its cell viability is 87.4 ± 9.7%.

Question: What about the cell viability [2] of the same sequence?
Answer: The cell viability was 99.2 ± 3.9%.

Question: What about the cell viability [3] of the same sequence?
Answer: The cell viability was 75.8 ± 3.5%.

Question: And the cell viability [4]?
Answer: The cell viability was 47.9 ± 8.2%.

Question: With UAAUCCCACAUGUAAACCAAA as the sequence, how does the cell viability [1] read?
Answer: The cell viability was 4.72 ± 1.4%.

Question: And the cell viability [2]?
Answer: The cell viability was 38 ± 1.9%.

Question: And the cell viability [3]?
Answer: Its cell viability is 29.7 ± 0.79%.

Question: And the cell viability [4]?
Answer: The cell viability was 35.7 ± 4.5%.

Question: Which results are given for UUAGGUUACAUGUAAACCAAA?
Answer: cell viability [1]: 81.3 ± 4.3%; cell viability [2]: 72.2 ± 2.9%; cell viability [3]: 61.6 ± 1.6%; cell viability [4]: 67.4 ± 17%

Question: With UGUCCAGACAUGUAAACCAAA as the sequence, how does the cell viability [1] read?
Answer: The cell viability was 65.5 ± 9%.

Question: And the cell viability [2]?
Answer: Its cell viability is 48.9 ± 14%.

Question: What about the cell viability [3] of the same sequence?
Answer: The cell viability was 51.4 ± 3.3%.

Question: What about the cell viability [4] of the same sequence?
Answer: Its cell viability is 22.6 ± 3.1%.

Question: Which results are given for UCGACGAACAUGUAAACCAAA?
Answer: cell viability [1]: 94 ± 21%; cell viability [2]: 70.3 ± 16%; cell viability [3]: 84.9 ± 3.5%; cell viability [4]: 65.6 ± 10%

Question: UACACGCACAUGUAAACCAAA was tested. Which cell viability [1] did it give?
Answer: The cell viability was 21.6 ± 4.1%.

Question: What about the cell viability [2] of the same sequence?
Answer: The cell viability was 41.3 ± 4.7%.

Question: And the cell viability [3]?
Answer: Its cell viability is 40.4 ± 6.8%.

Question: What about the cell viability [4] of the same sequence?
Answer: Its cell viability is 5.21 ± 1.1%.

Question: What does the source list for UCGGAUAACAUGUAAACCAAA?
Answer: cell viability [1]: 90.5 ± 18%; cell viability [2]: 67.4 ± 1.1%; cell viability [3]: 87.8 ± 14%; cell viability [4]: 70.6 ± 16%

Question: For UAGCUACACAUGUAAACCAAA, which cell viability [1] is on record?
Answer: Its cell viability is 71.3 ± 9.4%.

Question: What about the cell viability [2] of the same sequence?
Answer: Its cell viability is 70.4 ± 9.7%.

Question: And the cell viability [3]?
Answer: Its cell viability is 40.3 ± 3.2%.

Question: What about the cell viability [4] of the same sequence?
Answer: The cell viability was 24.5 ± 1.1%.

Question: Which cell viability [1] does the source give for UACACUAACAUGUAAACCAAA here?
Answer: The cell viability was 82.7 ± 11%.

Question: What about the cell viability [2] of the same sequence?
Answer: The cell viability was 98.5 ± 3%.

Question: And the cell viability [3]?
Answer: The cell viability was 84.5 ± 6.9%.

Question: And the cell viability [4]?
Answer: Its cell viability is 70 ± 9.2%.

Question: With UCGAUCGACAUGUAAACCAAA as the sequence, how does the cell viability [1] read?
Answer: The cell viability was 93.9 ± 11%.

Question: And the cell viability [2]?
Answer: The cell viability was 79.5 ± 20%.

Question: What about the cell viability [3] of the same sequence?
Answer: Its cell viability is 80.9 ± 9.8%.

Question: What about the cell viability [4] of the same sequence?
Answer: Its cell viability is 62.9 ± 0.5%.

Question: With UAUAAUGACAUGUAAACCAAA as the sequence, how does the cell viability [1] read?
Answer: Its cell viability is 116 ± 23%.

Question: What about the cell viability [2] of the same sequence?
Answer: Its cell viability is 93.7 ± 28%.

Question: And the cell viability [3]?
Answer: The cell viability was 101 ± 14%.

Question: And the cell viability [4]?
Answer: Its cell viability is 90.1 ± 14%.

Question: Which results are given for UGAUACAACAUGUAAACCAAA?
Answer: cell viability [1]: 70.5 ± 6.5%; cell viability [2]: 46.1 ± 5%; cell viability [3]: 66.5 ± 4.5%; cell viability [4]: 40.5 ± 5.1%

Question: For UGGUGACACAUGUAAACCAAA, which cell viability [1] is on record?
Answer: The cell viability was 19.7 ± 3.5%.

Question: What about the cell viability [2] of the same sequence?
Answer: Its cell viability is 11.6 ± 0.96%.

Question: And the cell viability [3]?
Answer: Its cell viability is 7.79 ± 0.74%.

Question: And the cell viability [4]?
Answer: The cell viability was 12.9 ± 3.5%.

Question: For UCGUAGUACAUGUAAACCAAA, which cell viability [1] is on record?
Answer: The cell viability was 85.6 ± 5.9%.

Question: What about the cell viability [2] of the same sequence?
Answer: The cell viability was 48.2 ± 1.2%.

Question: What about the cell viability [3] of the same sequence?
Answer: The cell viability was 31.1 ± 2.5%.

Question: What about the cell viability [4] of the same sequence?
Answer: Its cell viability is 71.8 ± 5%.

Question: Which cell viability [1] does the source give for UGGGGAGACAUGUAAACCAAA here?
Answer: The cell viability was 58.3 ± 15%.

Question: And the cell viability [2]?
Answer: The cell viability was 16.8 ± 2.6%.

Question: What about the cell viability [3] of the same sequence?
Answer: The cell viability was 7.92 ± 0.52%.

Question: And the cell viability [4]?
Answer: Its cell viability is 28.4 ± 5.2%.

Question: Which results are given for UCGACUUACAUGUAAACCAAA?
Answer: cell viability [1]: 94.4 ± 14%; cell viability [2]: 81.7 ± 11%; cell viability [3]: 86.11 ± 0.39%; cell viability [4]: 68 ± 12%

Question: With UCCGCGCACAUGUAAACCAAA as the sequence, how does the cell viability [1] read?
Answer: Its cell viability is 87.5 ± 6.9%.

Question: And the cell viability [2]?
Answer: Its cell viability is 55.7 ± 8.2%.

Question: What about the cell viability [3] of the same sequence?
Answer: The cell viability was 59.3 ± 5.8%.

Question: What about the cell viability [4] of the same sequence?
Answer: The cell viability was 35.1 ± 12%.

Question: Which results are given for UCAAUGCACAUGUAAACCAAA?
Answer: cell viability [1]: 21.9 ± 6.5%; cell viability [2]: 48.4 ± 4.7%; cell viability [3]: 26.4 ± 3%; cell viability [4]: 9.04 ± 1.4%

Question: Which cell viability [1] does the source give for UCGUCUGACAUGUAAACCAAA here?
Answer: Its cell viability is 92.1 ± 12%.

Question: What about the cell viability [2] of the same sequence?
Answer: Its cell viability is 73.5 ± 16%.

Question: And the cell viability [3]?
Answer: The cell viability was 68.4 ± 8.1%.

Question: And the cell viability [4]?
Answer: The cell viability was 46.7 ± 3.7%.

Question: Which results are given for UCGAUUUACAUGUAAACCAAA?
Answer: cell viability [1]: 90.2 ± 18%; cell viability [2]: 88.1 ± 13%; cell viability [3]: 81.9 ± 10%; cell viability [4]: 75 ± 12%

Question: Which results are given for UGUACUUACAUGUAAACCAAA?
Answer: cell viability [1]: 71.3 ± 12%; cell viability [2]: 69.5 ± 6.6%; cell viability [3]: 64.8 ± 4.6%; cell viability [4]: 78.8 ± 8.6%

Question: Which cell viability [1] does the source give for UCCUGCUACAUGUAAACCAAA here?
Answer: Its cell viability is 38.3 ± 5.6%.

Question: What about the cell viability [2] of the same sequence?
Answer: The cell viability was 59.8 ± 9.2%.

Question: And the cell viability [3]?
Answer: The cell viability was 32.9 ± 4.7%.

Question: What about the cell viability [4] of the same sequence?
Answer: Its cell viability is 34.8 ± 6.8%.

Question: Which results are given for UGCCUAUACAUGUAAACCAAA?
Answer: cell viability [1]: 58 ± 8.4%; cell viability [2]: 58 ± 4.7%; cell viability [3]: 59.9 ± 4.3%; cell viability [4]: 27.4 ± 9.7%
